# Out of some 360,000 compounds screened, about 25,000 (6.9%) were called active. Inconclusive results, whose numbers are uncertain, are shown with a selection of clear calls. Calls come from the whole dose curve; as a rule, active = well fitted inhibition curve with a large enough effect; inconclusive = small, poorly fitted or top-dose-only effect; inactive = flat fitted curve, though single readings scatter. Potencies beside an inconclusive call are fits to weak or partial responses and may not hold up.
# Target: Luciferin 4-monooxygenase (Photinus pyralis) (UniProt P08659)
# Chain of UniProt P08659 (P08659 whole entry, looked up): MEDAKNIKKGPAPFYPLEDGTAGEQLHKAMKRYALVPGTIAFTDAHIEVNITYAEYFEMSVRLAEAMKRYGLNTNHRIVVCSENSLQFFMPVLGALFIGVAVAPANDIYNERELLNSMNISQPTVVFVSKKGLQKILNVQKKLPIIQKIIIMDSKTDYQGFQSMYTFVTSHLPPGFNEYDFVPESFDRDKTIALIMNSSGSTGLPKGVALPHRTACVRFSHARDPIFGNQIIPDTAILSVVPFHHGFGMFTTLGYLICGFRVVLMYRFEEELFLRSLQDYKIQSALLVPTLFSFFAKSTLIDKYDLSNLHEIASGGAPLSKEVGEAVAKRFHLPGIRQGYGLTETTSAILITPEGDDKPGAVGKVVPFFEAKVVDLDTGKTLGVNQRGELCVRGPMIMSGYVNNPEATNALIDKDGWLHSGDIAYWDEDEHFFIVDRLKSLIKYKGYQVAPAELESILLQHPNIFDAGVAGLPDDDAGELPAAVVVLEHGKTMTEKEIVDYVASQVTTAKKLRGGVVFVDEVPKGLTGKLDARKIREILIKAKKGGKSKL
# Assay: qHTS profiling assay for firefly luciferase inhibitor/activator using purifed enzyme and Km concentrations of substrates (counterscreen for miR-21 project); note: nearly all actives have a fitted effect of over 55% in size;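 for activity change, negative = inhibition: plate controls were vehicle for no effect and reference inhibitor for full effect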
# Conditions: purified FLuc, luminescence inhibition; activity change, negative = inhibition: at 57.5 µM (top of the series)
# Outline: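 Biochemical qHTS of compounds, final roughly 60 µM downward over six points, against 10 nM purified firefly luciferase using Km concentrations of substrates (10 uM D-luciferin, 10 uM ATP) in Tris acetate pH 7.5 buffer; luminescence output.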
# Potency is the fitted concentration of half-maximal effect; tags give direction and shape of the fitted curve.
Compound,Potency,"activity change, negative = inhibition"
Cc1cc(C)nc(Sc2ncnc3c2oc2ccccc23)n1,"inconclusive: 23.9 µM [inhibitor, partial curve]",–
CCc1ccc(OCC(=O)Nc2ccc(S(=O)(=O)Nc3cc(C)on3)cc2)c(Br)c1,"inconclusive: 26.9 µM [inhibitor, single point]",–
O=C(NCCO)Nc1ccc2nsnc2c1,–,inactive: 1.06%
O=C(CSc1nncc2ccccc12)N1CCCCC1,"inconclusive: 16.9 µM [inhibitor, partial curve]",–
CC1(C)OC(=O)C=C[C@]2(C)[C@H]3CC[C@@]4(C)[C@H](C(=O)O)OC(=O)[C@H]5O[C@]54[C@]3(C)C(=O)C[C@@H]12,–,inactive: -0.329%
Cn1c(=NC(=O)CS(=O)(=O)c2ccc(F)cc2)sc2ccccc21,"inconclusive: 23.9 µM [inhibitor, partial curve, poor fit]",–
CC1=C(C(=O)OC(C)C)C(c2ccc(Cl)cc2)n2c(s/c(=C\c3ccc(OCC(=O)O)cc3)c2=O)=N1 (centres undefined),–,inactive: -0.124%
COc1cccc(C(=O)/C=C/Nc2ccc(S(=O)(=O)Nc3ccc(C(C)=O)cc3)cc2)c1,"inconclusive: 37.9 µM [inhibitor, single point]",–
CC(C)c1nn2c(N)c(/C=C3\C=Nc4ccccc43)c(=O)nc2s1,"inconclusive: 26.9 µM [inhibitor, single point]",–
CCCCOC(=O)n1c(SCC(=O)N(C)C)nc2ccccc21,–,inactive: -15.7%
Cc1c(OCC(=O)N[C@H](C(=O)O)c2ccccc2)ccc2c3c(c(=O)oc12)CCCC3,"inconclusive: 21.3 µM [inhibitor, partial curve, poor fit]",–
COc1ccc(-n2nc(N)c(C(N)=O)n2)cc1,"inconclusive: 26.9 µM [inhibitor, partial curve]",–
CC(C)CCNC(=O)c1ccc2c(c1)ncn2C1CCCC1,"inconclusive: 23.9 µM [inhibitor, single point]",–
CC(C)c1ccc(-c2noc(C3CCCN(C(=O)c4ccc(F)cc4F)C3)n2)cc1 (centres undefined),"inconclusive: 26.9 µM [inhibitor, partial curve, poor fit]",–
CCOC(=O)N1CCN(C(=O)C(=O)Nc2sc3c(c2C#N)CC(C)(C)OC3)CC1,active: 16.9 µM,–
CCN1CCN(c2ncnc3c2cnn3-c2cc(Cl)ccc2C)CC1,–,inactive: -0.754%
COc1ccc(C(=O)Nc2ccc(-c3n[nH]c(=S)o3)cc2)cc1OC,"inconclusive: 23.9 µM [inhibitor, single point]",–
S=c1[nH]cnc2scc(-c3ccc(Cl)cc3)c12,–,inactive: 1.29%
COC(/C=C/Nc1ccc(OC)cc1)=C(C#N)C#N,–,inactive: -0.92%

# Source: PubChem BioAssay AID588342 (National Center for Advancing Translational Sciences (NCATS), 2011)
